# The supplement of paper PMC9446081
# The campaign covered roughly 39,000 compounds. About 220 (0.56%) showed activity. The list shows a part of the results.
# System: Escherichia coli K-12 BW25113
# Test: relative growth (OD600 normalised to plate interquartile mean) (fraction); higher = less growth inhibition, active = 0.2 or less
# Settings: 50 µM; LB; incubation time: overnight (16-24 h)
# 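Note: static incubation at 37 °C against the wild-type strain, values averaged over two biological replicates.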
row,SMILES,relative growth
1,CNC(=O)C[C@@H]1CC[C@H]2[C@@H](COC[C@@H](O)CN2C(=O)Nc2cccc(OC)c2)O1,inactive: 0.961
2,C[C@H](CO)N1C[C@H](C)[C@H](CN(C)C(=O)Nc2ccc(F)cc2)OCCCC[C@H](C)Oc2ccc(NC(=O)Nc3ccc4c(c3)OCO4)cc2C1=O,inactive: 1.03
3,C[C@@H]1CCCCO[C@@H](CN(C)Cc2ccc(Cl)c(Cl)c2)[C@@H](C)CN([C@H](C)CO)C(=O)c2cc(NC(=O)NC3CCCCC3)ccc2O1,inactive: 1
4,COc1ccc(S(=O)(=O)N(C)C[C@H]2Oc3c(NC(=O)C4CC4)cccc3C(=O)N([C@H](C)CO)C[C@H]2C)cc1,inactive: 0.982
5,C[C@H](CO)N1C[C@H](C)[C@@H](CN(C)S(=O)(=O)c2cccs2)Oc2ccc(NC(=O)c3ccncc3)cc2CC1=O,inactive: 1.02
6,C[C@H]1CN([C@@H](C)CO)C(=O)Cc2cc(NC(=O)Nc3cccc4ccccc34)ccc2O[C@H]1CN(C)S(=O)(=O)c1ccc(Cl)cc1,inactive: 1.04
7,CC(C(=O)O)c1cccc(Oc2ccccc2)c1 (stereo not drawn),inactive: 1.03
8,C[C@H]1CN([C@@H](C)CO)C(=O)c2cc(C#Cc3ccccc3F)cnc2O[C@H]1CN(C)S(=O)(=O)c1ccccc1,inactive: 1.02
9,C[C@@H]1CN([C@H](C)CO)C(=O)Cc2cc(NC(=O)Nc3ccccc3)ccc2O[C@H]1CN(C)Cc1ccc(Cl)c(Cl)c1,inactive: 1.02
10,CCCC1CCC(c2ccc(OC(=O)c3ccco3)cc2)CC1 (stereo not drawn),inactive: 1.03
11,O=C(C[C@@H]1C=C[C@H](NS(=O)(=O)c2ccc(F)cc2)[C@@H](CO)O1)NCc1ccc(Cl)c(Cl)c1,inactive: 0.985
12,C[C@@H]1CN([C@H](C)CO)S(=O)(=O)c2ccc(C#Cc3ccccn3)cc2O[C@H]1CN(C)Cc1ccccc1,inactive: 1.04
13,COc1ccc(C#Cc2cnc3c(c2)C(=O)N([C@@H](C)CO)C[C@@H](C)[C@H](CN(C)CC2CCOCC2)O3)cc1,inactive: 1.01
14,C[C@@H]1CCCCO[C@@H](CN(C)Cc2ccc(C(=O)Nc3ccccc3N)cc2)[C@@H](C)CN([C@H](C)CO)C(=O)c2cc(NS(=O)(=O)c3ccc(F)cc3)ccc2O1,inactive: 1
15,CO[C@H]1CN(C)C(=O)c2cc(NS(=O)(=O)c3cn(C)cn3)ccc2OC[C@@H](C)N(CC2CC2)C[C@@H]1C,inactive: 0.961
16,Cc1cccc(CN(C)C[C@@H]2Oc3ncc(-c4cccc(C(F)(F)F)c4)cc3C(=O)N([C@H](C)CO)C[C@@H]2C)c1,inactive: 1
17,COc1ccc(S(=O)(=O)Nc2ccc3c(c2)C(=O)N([C@H](C)CO)C[C@H](C)[C@H](CN(C)C(=O)NC2CCCCC2)OCCCC[C@@H](C)O3)cc1,inactive: 0.984
18,COC(=O)C[C@H]1CC[C@H]2[C@@H](COC[C@H](O)CN2S(=O)(=O)c2ccccc2C)O1,inactive: 0.958
19,O=[Si](O)O,inactive: 0.994
20,C[C@@H]1CCCCO[C@@H](CN(C)S(=O)(=O)c2ccc(F)cc2)[C@H](C)CN([C@@H](C)CO)C(=O)c2cc(NC(=O)Nc3cccc4ccccc34)ccc2O1,inactive: 1.04

row,SMILES,relative growth
1,COc1ccc(NC(=O)Nc2ccc3c(c2)C(=O)N([C@@H](C)CO)C[C@H](C)[C@H](CN(C)C(=O)c2ccccc2)OCCCC[C@H](C)O3)cc1,inactive: 0.993
2,C[C@@H]1CN([C@H](C)CO)C(=O)Cc2cc(NC(=O)Nc3cccc4ccccc34)ccc2O[C@H]1CN(C)Cc1ccncc1,inactive: 0.984
3,Cc1sc(/N=C/c2ccc(Cl)c(Cl)c2)c(C#N)c1C,inactive: 0.992
4,COc1ccc(NC(=O)Nc2cccc3c2O[C@H](CN(C)Cc2ccc(C(=O)Nc4ccccc4N)cc2)[C@H](C)CN([C@H](C)CO)C3=O)cc1,inactive: 0.97
5,Cc1noc(C)c1NC(=O)N(C)C[C@@H]1OCCCC[C@@H](C)Oc2ccc(NS(=O)(=O)c3ccc(F)cc3)cc2C(=O)N([C@H](C)CO)C[C@H]1C,inactive: 0.981
6,CCCC(=O)Nc1ccc2c(c1)OC[C@@H](C)N(C(=O)CN1CCOCC1)C[C@@H](C)[C@H](OC)CN(C)C2=O,inactive: 0.914
7,C[C@@H]1CN([C@H](C)CO)C(=O)CCCn2cc(nn2)CO[C@H]1CN(C)C(=O)CCCN(C)C,inactive: 1.01
8,C[C@H](CO)N1C[C@H](C)[C@@H](CN(C)Cc2cccc3c2OCCCO3)OCc2ccccc2-c2c(n(C)c3ccccc23)C1=O,inactive: 0.972
9,C[C@@H]1CCCCO[C@@H](CN(C)S(=O)(=O)c2ccc(Cl)cc2)[C@H](C)CN([C@H](C)CO)C(=O)c2cc(NC(=O)Nc3ccccc3)ccc2O1,inactive: 1.06
10,C[C@@H]1CN([C@H](C)CO)C(=O)Cc2cc(NC(=O)c3ccncc3)ccc2O[C@@H]1CN(C)S(=O)(=O)c1cccs1,inactive: 0.966
11,C[C@H](CO)N1C[C@H](C)[C@@H](CN(C)Cc2ccc(C(F)(F)F)cc2)Oc2ccc(NC(=O)Nc3ccccc3)cc2CC1=O,inactive: 1.02
12,C[C@H](CO)N1C[C@H](C)[C@H](CN(C)C(=O)Nc2ccc(-c3ccccc3)cc2)OCc2ccccc2-c2ccccc2C1=O,inactive: 0.99
13,C[C@H]1CN([C@@H](C)CO)C(=O)c2cccc(N(C)C)c2O[C@@H]1CN(C)S(=O)(=O)c1ccc(Cl)cc1,inactive: 0.997
14,CCCNC(=O)N(C)C[C@H]1Oc2cc(-c3ccc(C)cc3)ccc2S(=O)(=O)N([C@@H](C)CO)C[C@H]1C,inactive: 1.02
15,COc1ccc(C#Cc2cnc3c(c2)C(=O)N([C@H](C)CO)C[C@H](C)[C@H](CN(C)S(=O)(=O)c2cccs2)O3)cc1OC,inactive: 1.01
16,COC(=O)C1=CO[C@@H](O[C@@H]2O[C@H](CO)[C@@H](O)[C@H](O)[C@H]2O)[C@@H]2[C@@H](C)[C@@H](O)[C@@H](OC(=O)/C=C/c3ccc(O)c(O)c3)[C@H]12,inactive: 0.99
17,Cc1ccc(S(=O)(=O)Nc2cccc3c2O[C@H](CN(C)Cc2ccc(Oc4ccccc4)cc2)[C@@H](C)CN([C@H](C)CO)C3=O)cc1,inactive: 0.981
18,COc1ccc(C2=C(NC(=O)c3ccc(OC)cc3-c3cccc(OC)c3)C(=O)c3ccccc3C2=O)cc1,inactive: 1.01
19,O=C1C(O)=C(C2CCC(c3ccc(Cl)cc3)CC2)C(=O)c2ccccc21 (stereo not drawn),inactive: 1.19
20,C[C@@H]1CCCCO[C@@H](CN(C)S(=O)(=O)c2ccccc2)[C@@H](C)CN([C@H](C)CO)C(=O)c2cc(NC(=O)CCC(F)(F)F)ccc2O1,inactive: 1.01

row,SMILES,relative growth
1,CC[C@@]1(O)C(=O)OCc2c1cc1n(c2=O)Cc2c-1nc1cc(F)c(C)c3c1c2[C@@H](N)CC3,inactive: 1.02
2,Cc1noc(C)c1NC(=O)Nc1cccc2c1O[C@@H](CN(C)Cc1ccc(C(=O)Nc3ccccc3N)cc1)[C@@H](C)CN([C@H](C)CO)C2=O,inactive: 1.02
3,C[C@H](CO)N1C[C@H](C)[C@H](CN(C)C(=O)Cc2ccccc2)OCCCC[C@H](C)Oc2ccc(NS(=O)(=O)c3ccc(Cl)cc3)cc2C1=O,inactive: 1.03
4,C[C@H]1CN([C@@H](C)CO)C(=O)Cc2cc(NS(=O)(=O)c3cn(C)cn3)ccc2O[C@@H]1CN(C)C,inactive: 0.993
5,C[C@@H]1CN([C@@H](C)CO)C(=O)c2cc(C#Cc3cccc(F)c3)cnc2O[C@H]1CN(C)C(=O)C1CCOCC1,inactive: 1.02
6,CC(C)(O)[C@@H]1CC[C@]2(CO)[C@@H](O)CC[C@](C)(O)[C@H]2[C@@H]1O[C@@H]1O[C@H](CO)[C@@H](O)[C@H](O)[C@H]1O,inactive: 0.985
7,C[C@H]1CN([C@@H](C)CO)C(=O)Cc2cc(NC(=O)C3CC3)ccc2O[C@H]1CN(C)S(=O)(=O)c1ccc(Cl)cc1,inactive: 1.02
8,CC(C)NC(=O)Nc1ccc2c(c1)C(=O)N([C@@H](C)CO)C[C@H](C)[C@@H](CN(C)Cc1ccc(C(F)(F)F)cc1)OCCCC[C@@H](C)O2,inactive: 0.985
9,C=C(C)CCn1cccc1C(C)=O,inactive: 0.995
10,C[C@H](CO)N1C[C@H](C)[C@H](CN(C)C(=O)Nc2ccc3c(c2)OCO3)OCCCC[C@H](C)Oc2ccc(NS(=O)(=O)c3cccs3)cc2C1=O,inactive: 1.05
11,C[C@@H]1CN([C@@H](C)CO)S(=O)(=O)c2ccc(Br)cc2O[C@H]1CN(C)C(=O)C1CCCCC1,inactive: 0.971
12,C[C@@H]1CN([C@@H](C)CO)C(=O)Cc2cc(NC(=O)C3CCCCC3)ccc2O[C@H]1CN(C)S(=O)(=O)c1cn(C)cn1,inactive: 1.02
13,C[C@@H]1CN([C@@H](C)CO)S(=O)(=O)c2ccc(C#CCN(C)C)cc2O[C@H]1CN(C)C(=O)CN(C)C,inactive: 0.998
14,COCC#Cc1ccc2c(c1)O[C@H](CN(C)S(=O)(=O)c1cccc(F)c1)[C@@H](C)CN([C@@H](C)CO)S2(=O)=O,inactive: 1.01
15,C[C@H]1CN([C@@H](C)CO)C(=O)Cc2cc(NC(=O)Nc3ccc(F)cc3)ccc2O[C@@H]1CN(C)Cc1ccc(-c2ccccc2)cc1,inactive: 0.998
16,COc1ccc(S(=O)(=O)N(C)C[C@H]2Oc3c(NC(=O)c4cnccn4)cccc3C(=O)N([C@H](C)CO)C[C@@H]2C)cc1,inactive: 1.01
17,C[C@@H]1CN([C@H](C)CO)C(=O)Cc2cc(NC(=O)c3ccncc3)ccc2O[C@@H]1CN(C)Cc1ccncc1,inactive: 1.01
18,C[C@H](CO)N1C[C@H](C)[C@@H](CN(C)C(=O)NC2CCCCC2)Oc2c(NC(=O)Nc3ccc(C(F)(F)F)cc3)cccc2C1=O,inactive: 0.703
